Reference: PMC3642079
Results are given in words; binding and its absence hold for the method and conditions named. In cells and extracts the contact can be indirect. Some entries that bind do so weakly or less than the wild type. For some assays here: Where a sequence is shown, tags or fusion partners need not be part of it.

Assays:
[1] = molecular target: T1, GST-IRF4 fusion protein (human) (UniProt Q15306); assay: pull-down; S35-radiolabeled in vitro translated EBNA3C (T7-TNT kit), pre-cleared with GST beads, incubated with GST control, GST-IRF4 or GST-IRF8 beads; washed with Binding Buffer; phosphoimager; only the target purified
T1 sequence: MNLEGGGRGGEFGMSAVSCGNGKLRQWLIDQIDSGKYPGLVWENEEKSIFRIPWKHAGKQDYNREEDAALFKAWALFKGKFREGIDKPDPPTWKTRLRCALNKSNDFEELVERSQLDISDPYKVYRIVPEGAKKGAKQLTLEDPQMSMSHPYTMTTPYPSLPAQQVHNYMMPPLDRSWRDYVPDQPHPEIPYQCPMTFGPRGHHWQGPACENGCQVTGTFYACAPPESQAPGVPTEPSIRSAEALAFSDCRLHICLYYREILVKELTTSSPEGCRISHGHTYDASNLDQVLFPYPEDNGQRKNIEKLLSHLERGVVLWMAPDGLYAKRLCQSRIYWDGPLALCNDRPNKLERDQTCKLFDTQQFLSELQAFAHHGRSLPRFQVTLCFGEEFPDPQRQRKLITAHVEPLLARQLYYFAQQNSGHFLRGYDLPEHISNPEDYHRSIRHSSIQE

[2] = molecular target: T2, GST-IRF8 fusion protein (human) (UniProt Q02556); assay: as above
T2 sequence: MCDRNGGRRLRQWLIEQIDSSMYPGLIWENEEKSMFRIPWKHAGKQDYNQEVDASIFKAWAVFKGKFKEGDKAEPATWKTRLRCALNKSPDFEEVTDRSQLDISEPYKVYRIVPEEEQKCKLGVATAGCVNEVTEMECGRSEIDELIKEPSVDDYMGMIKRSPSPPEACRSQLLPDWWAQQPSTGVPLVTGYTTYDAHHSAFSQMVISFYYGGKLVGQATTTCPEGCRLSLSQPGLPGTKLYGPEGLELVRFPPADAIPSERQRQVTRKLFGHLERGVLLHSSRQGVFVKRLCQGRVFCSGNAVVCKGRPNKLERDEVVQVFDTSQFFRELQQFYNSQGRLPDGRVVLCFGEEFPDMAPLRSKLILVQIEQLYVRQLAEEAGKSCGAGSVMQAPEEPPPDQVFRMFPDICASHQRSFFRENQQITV

[3] = molecular target: T1, GST-IRF4 fusion protein (human); assay: pull-down; only the target purified
[4] = molecular target: T2, GST-IRF8 fusion protein (human); assay: pull-down; only the target purified
[5] = molecular target: Myc-tagged IRF8 residues 279-426 (human) (UniProt Q02556); assay: co-IP; HEK-293 co-transfected with Myc-tagged IRF8 truncated mutants and Flag-tagged EBNA3C; harvested 36 h after transfection; IP with 1 µg anti-Flag or anti-Myc antibody (which one is not told), blot with anti-Myc and anti-Flag
[6] = molecular target: Flag-tagged IRF4 residues 246-451 (human) (UniProt Q15306); assay: co-IP
Flag-tagged IRF8 (human) = molecular target: T3, Flag-tagged IRF8 (human) (UniProt Q02556); assay: co-IP
T3 sequence: T2 sequence

[7] = molecular target: T4, Flag-tagged full length IRF4 (residues 1-451) (human) (UniProt Q15306); assay: co-IP
T4 sequence: T1 sequence

[8] = molecular target: EBNA3C expressed in EBV-transformed lymphoblastoid cell lines LCL1 and LCL2 (Epstein-Barr virus) (UniProt P03204); assay: co-IP; lysates of BJAB, BJAB7, BJAB10, LCL1, LCL2; IP with A10 (EBNA3C), IRF4 or IRF8 specific antibodies; endogenous EBNA3C, IRF4, IRF8 detected by blot
[9] = molecular target: EBNA3C stably expressed in BJAB cells (BJAB7, BJAB10) (Epstein-Barr virus) (UniProt P03204); assay: as above
[10] = molecular target: Myc-tagged EBNA3C residues 1-365 (Epstein-Barr virus (strain B95-8)) (UniProt P03204); assay: co-IP; HEK-293 co-transfected with full length or truncated Myc-EBNA3C and Flag-IRF4 or Flag-IRF8; harvested 36 h after transfection; IP with 1 µg anti-Myc antibody, blot with anti-Myc and anti-Flag
[11] = molecular target: Myc-tagged EBNA3C residues 366-620 (Epstein-Barr virus (strain B95-8)) (UniProt P03204); assay: as above
[12] = molecular target: Myc-tagged EBNA3C residues 621-992 (Epstein-Barr virus (strain B95-8)) (UniProt P03204); assay: as above
[13] = molecular target: Myc-tagged full length EBNA3C (residues 1-992) (Epstein-Barr virus (strain B95-8)) (UniProt P03204); assay: as above
[14] = molecular target: GST-EBNA3C residues 130-190 (Epstein-Barr virus (strain B95-8)) (UniProt P03204); assay: pull-down; S35-radiolabeled in vitro translated Flag-IRF4 or IRF8 incubated with GST control or GST-EBNA3C (truncated, wild type 130-159 or point mutant) beads; phosphoimager, relative binding units; only the target purified
[15] = molecular target: Wild type GST-EBNA3C (residues 130-159) (Epstein-Barr virus (strain B95-8)) (UniProt P03204); assay: as above

Q: For “in vitro translated EBNA3C residues 1-365 (from UniProt P03204 1-365) (domain or fragment)”, which binding [1] is on record?
A: binds

Q: What about the binding [2] of the same molecule?
A: binds

Q: With “EBNA3C expressed in EBV-transformed lymphoblastoid cell lines LCL1 and LCL2 (from UniProt P03204 1-992)” as the molecule, how does the binding [3] read?
A: binds

Q: And the binding [4]?
A: binds

Q: For “EBNA3C stably expressed in BJAB cells (BJAB7, BJAB10) (from UniProt P03204 1-992)”, which binding [3] is on record?
A: binds

Q: What about the binding [4] of the same molecule?
A: binds

Q: How did the binding [5] turn out when “Flag-tagged EBNA3C (from UniProt P03204 1-992)” was run?
A: binds

Q: Which results are given for “Myc-tagged full length EBNA3C (residues 1-992) (from UniProt P03204 1-992)”?
A: binding [6]: binds; binding (Flag-tagged IRF8 (human)): binds; binding [7]: binds

B1: endogenous IRF4 (protein, UniProt Q15306 1-451)
chain: T1 sequence
Q: How did the binding [8] turn out when B1 was run?
A: binds

Q: And the binding [9]?
A: binds

B2: Flag-tagged full length IRF4 (residues 1-451) (protein, UniProt Q15306 1-451)
chain: T1 sequence
Q: What does the source list for B2?
A: binding [10]: binds; binding [11]: no binding; binding [12]: no binding; binding [13]: binds

B3: in vitro translated Flag-IRF4 (protein, UniProt Q15306 1-451)
chain: T1 sequence
modifications: S35-radiolabeled
Q: For B3, which binding [14] is on record?
A: binds

Q: What about the binding [15] of the same molecule?
A: binds

B4: endogenous IRF8 (protein, UniProt Q02556 1-426)
chain: T2 sequence
Q: Which results are given for B4?
A: binding [8]: binds; binding [9]: binds

B5: Flag-tagged IRF8 (protein, UniProt Q02556 1-426)
chain: T2 sequence
Q: With B5 as the molecule, how does the binding [10] read?
A: binds

Q: What about the binding [11] of the same molecule?
A: no binding

Q: And the binding [12]?
A: no binding

Q: What about the binding [13] of the same molecule?
A: binds

B6: in vitro translated Flag-IRF8 (protein, UniProt Q02556 1-426)
chain: T2 sequence
modifications: S35-radiolabeled
Q: B6 was tested. Which binding [14] did it give?
A: binds

Q: What about the binding [15] of the same molecule?
A: binds
